Source: article PMC9911399, “Two distinct binding modes provide the RNA-binding protein RbFox with extraordinary sequence specificity”
Numbering of substitutions follows the chain as printed; changes in the protein carry UniProt numbers. The list shows a part of the results.

T1: RBFOX1 RRM RbFoxmut (Fox-RRM*) (Homo sapiens, UniProt Q9NWB1 109-208, R118D;E147R;N151S;E152T)
T1 sequence: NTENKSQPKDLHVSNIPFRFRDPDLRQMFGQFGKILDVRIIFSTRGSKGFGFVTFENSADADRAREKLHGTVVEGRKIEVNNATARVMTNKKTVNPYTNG

B1: CCAUUGU (DNA:RNA)
RNA: GGGAGACCGGAAUUCAGAUUGUCCCCAUUGUUUAAAUCCCGUCGUAGCCACCA
DNA 1: CAATCTGAATTCCGGTCTCCC
DNA 2: TGGTGGCTACGACGGGATT
B2: UGACAGU (DNA:RNA)
RNA: B1 RNA with C25U, C26G, U28C, U29A
DNA 1: CAATCTGAATTCCGGTCTCCC
DNA 2: TGGTGGCTACGACGGGATT
B3: GUGGUCC (DNA:RNA)
RNA: B1 RNA with C25G, C26U, A27G, U28G, G30C, U31C
DNA 1: CAATCTGAATTCCGGTCTCCC
DNA 2: TGGTGGCTACGACGGGATT
B4: CGGGUCC (DNA:RNA)
RNA: B1 RNA with C26G, A27G, U28G, G30C, U31C
DNA 1: CAATCTGAATTCCGGTCTCCC
DNA 2: TGGTGGCTACGACGGGATT
B5: CGGCCCU (DNA:RNA)
RNA: B1 RNA with C26G, A27G, U28C, U29C, G30C
DNA 1: CAATCTGAATTCCGGTCTCCC
DNA 2: TGGTGGCTACGACGGGATT
B6: GGACUGG (DNA:RNA)
RNA: B1 RNA with C25G, C26G, U28C, U31G
DNA 1: CAATCTGAATTCCGGTCTCCC
DNA 2: TGGTGGCTACGACGGGATT
B7: UCUUGAC (DNA:RNA)
RNA: B1 RNA with C25U, A27U, U29G, G30A, U31C
DNA 1: CAATCTGAATTCCGGTCTCCC
DNA 2: TGGTGGCTACGACGGGATT
B8: ACCAUGC (DNA:RNA)
RNA: B1 RNA with C25A, A27C, U28A, U31C
DNA 1: CAATCTGAATTCCGGTCTCCC
DNA 2: TGGTGGCTACGACGGGATT
B9: UCUGCAG (DNA:RNA)
RNA: B1 RNA with C25U, A27U, U28G, U29C, G30A, U31G
DNA 1: CAATCTGAATTCCGGTCTCCC
DNA 2: TGGTGGCTACGACGGGATT
B10: CAUCGGU (DNA:RNA)
RNA: B1 RNA with C26A, A27U, U28C, U29G
DNA 1: CAATCTGAATTCCGGTCTCCC
DNA 2: TGGTGGCTACGACGGGATT
B11: GUCAGUU (DNA:RNA)
RNA: B1 RNA with C25G, C26U, A27C, U28A, U29G, G30U
DNA 1: CAATCTGAATTCCGGTCTCCC
DNA 2: TGGTGGCTACGACGGGATT
B12: GCGGAGA (DNA:RNA)
RNA: B1 RNA with C25G, A27G, U28G, U29A, U31A
DNA 1: CAATCTGAATTCCGGTCTCCC
DNA 2: TGGTGGCTACGACGGGATT
B13: UCGGGAU (DNA:RNA)
RNA: B1 RNA with C25U, A27G, U28G, U29G, G30A
DNA 1: CAATCTGAATTCCGGTCTCCC
DNA 2: TGGTGGCTACGACGGGATT
B14: CGAAACA (DNA:RNA)
RNA: B1 RNA with C26G, U28A, U29A, G30C, U31A
DNA 1: CAATCTGAATTCCGGTCTCCC
DNA 2: TGGTGGCTACGACGGGATT
B15: UCGAUGG (DNA:RNA)
RNA: B1 RNA with C25U, A27G, U28A, U31G
DNA 1: CAATCTGAATTCCGGTCTCCC
DNA 2: TGGTGGCTACGACGGGATT
B16: UUUUCAG (DNA:RNA)
RNA: B1 RNA with C25U, C26U, A27U, U29C, G30A, U31G
DNA 1: CAATCTGAATTCCGGTCTCCC
DNA 2: TGGTGGCTACGACGGGATT
B17: GUAACUA (DNA:RNA)
RNA: B1 RNA with C25G, C26U, U28A, U29C, G30U, U31A
DNA 1: CAATCTGAATTCCGGTCTCCC
DNA 2: TGGTGGCTACGACGGGATT
B18: CUGAUAA (DNA:RNA)
RNA: B1 RNA with C26U, A27G, U28A, G30A, U31A
DNA 1: CAATCTGAATTCCGGTCTCCC
DNA 2: TGGTGGCTACGACGGGATT
B19: CAGUUGA (DNA:RNA)
RNA: B1 RNA with C26A, A27G, U31A
DNA 1: CAATCTGAATTCCGGTCTCCC
DNA 2: TGGTGGCTACGACGGGATT
B20: CAGCUUU (DNA:RNA)
RNA: B1 RNA with C26A, A27G, U28C, G30U
DNA 1: CAATCTGAATTCCGGTCTCCC
DNA 2: TGGTGGCTACGACGGGATT
B21: CCUAUUC (DNA:RNA)
RNA: B1 RNA with A27U, U28A, G30U, U31C
DNA 1: CAATCTGAATTCCGGTCTCCC
DNA 2: TGGTGGCTACGACGGGATT
B22: CACCUGG (DNA:RNA)
RNA: B1 RNA with C26A, A27C, U28C, U31G
DNA 1: CAATCTGAATTCCGGTCTCCC
DNA 2: TGGTGGCTACGACGGGATT
B23: UAAAUAU (DNA:RNA)
RNA: B1 RNA with C25U, C26A, U28A, G30A
DNA 1: CAATCTGAATTCCGGTCTCCC
DNA 2: TGGTGGCTACGACGGGATT
B24: UGGUUGC (DNA:RNA)
RNA: B1 RNA with C25U, C26G, A27G, U31C
DNA 1: CAATCTGAATTCCGGTCTCCC
DNA 2: TGGTGGCTACGACGGGATT
B25: CCUCCGA (DNA:RNA)
RNA: B1 RNA with A27U, U28C, U29C, U31A
DNA 1: CAATCTGAATTCCGGTCTCCC
DNA 2: TGGTGGCTACGACGGGATT
B26: GAGGAUG (DNA:RNA)
RNA: GGGAGACCGGAAUUCAGAUUGUCCGAGGAUGUUAAAUCCCGUCGUAGCCACCA
DNA 1: CAATCTGAATTCCGGTCTCCC
DNA 2: TGGTGGCTACGACGGGATT
B27: UAUGCAU (DNA:RNA)
RNA: B26 RNA with G25U, G27U, A29C, U30A, G31U
DNA 1: CAATCTGAATTCCGGTCTCCC
DNA 2: TGGTGGCTACGACGGGATT
B28: ACAACGA (DNA:RNA)
RNA: B1 RNA with C25A, U28A, U29C, U31A
DNA 1: CAATCTGAATTCCGGTCTCCC
DNA 2: TGGTGGCTACGACGGGATT
B29: UUUACUC (DNA:RNA)
RNA: B26 RNA with G25U, A26U, G27U, G28A, A29C, G31C
DNA 1: CAATCTGAATTCCGGTCTCCC
DNA 2: TGGTGGCTACGACGGGATT
B30: CCCAGUC (DNA:RNA)
RNA: B1 RNA with A27C, U28A, U29G, G30U, U31C
DNA 1: CAATCTGAATTCCGGTCTCCC
DNA 2: TGGTGGCTACGACGGGATT
B31: UAGGUUG (DNA:RNA)
RNA: B26 RNA with G25U, A29U
DNA 1: CAATCTGAATTCCGGTCTCCC
DNA 2: TGGTGGCTACGACGGGATT

Each binder was assayed against T1, RBFOX1 RRM RbFoxmut (Fox-RRM*) (assay: EMSA; HiTS-Eq, 1 nM pool, 10 min; buffer printed only for the single-RNA assays: 10 mM Tris pH 7.5, 150 mM NaCl, 3.4 mM EDTA, 0.001% NP-40, 30 C). Details: tags: His6 N-terminal (pET28a); label: 5' 32P.
Summary of the method: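 Purified wild-type or mutant RbFox RRM at increasing concentrations was equilibrated with 1 nM of 5′-radiolabelled RNA carrying 7 randomized nucleotides for 10 min in 50 µL. Unbound RNA was separated by 8% native PAGE and sequenced. Relative association constants came from read-count changes of each RNA species compared with the control reaction, normalised to the cognate motif.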

Row | Binder | binding signal
1 | B1 | 0.123 KA relative to UGCAUGU
2 | B2 | 0.0684 KA relative to UGCAUGU
3 | B3 | 0.135 KA relative to UGCAUGU
4 | B4 | 0.107 KA relative to UGCAUGU
5 | B5 | 0.0522 KA relative to UGCAUGU
6 | B6 | 0.206 KA relative to UGCAUGU
7 | B7 | 0.0989 KA relative to UGCAUGU
8 | B8 | 0.0949 KA relative to UGCAUGU
9 | B9 | 0.112 KA relative to UGCAUGU
10 | B10 | 0.111 KA relative to UGCAUGU
11 | B11 | 0.0775 KA relative to UGCAUGU
12 | B12 | 0.0827 KA relative to UGCAUGU
13 | B13 | 0.0757 KA relative to UGCAUGU
14 | B14 | 0.0759 KA relative to UGCAUGU
15 | B15 | 0.0892 KA relative to UGCAUGU
16 | B16 | 0.113 KA relative to UGCAUGU

Row | Binder | binding signal
17 | B17 | 0.103 KA relative to UGCAUGU
18 | B18 | 0.0763 KA relative to UGCAUGU
19 | B19 | 0.107 KA relative to UGCAUGU
20 | B20 | 0.116 KA relative to UGCAUGU
21 | B21 | 0.0746 KA relative to UGCAUGU
22 | B22 | 0.099 KA relative to UGCAUGU
23 | B23 | 0.0636 KA relative to UGCAUGU
24 | B24 | 0.252 KA relative to UGCAUGU
25 | B25 | 0.0512 KA relative to UGCAUGU
26 | B26 | 0.23 KA relative to UGCAUGU
27 | B27 | 0.0878 KA relative to UGCAUGU
28 | B28 | 0.0863 KA relative to UGCAUGU
29 | B29 | 0.0584 KA relative to UGCAUGU
30 | B30 | 0.0859 KA relative to UGCAUGU
31 | B31 | 0.35 KA relative to UGCAUGU
